Each structure is given as a SMILES string. Among all 4,800 compounds or so, about 420 (8.8%) showed an effect of 50% or more. Some of the results follow.

The assay relates to Plasmodium falciparum. The experiment in a line: Confirmatory screen in NF54 nanoGlo assay, in single point, at 2uM, 72h. It counts as functional, Erythrocyte. The following applies: timepoint 72 hour.
As for `CCCn1c(C)ccc(-c2noc(CCC(=O)NC3CCCC3)n2)c1=O`, the “% Inhibition” value is given as -6%. Regarding `O=C(COc1ccc(Cl)cc1Cl)Nc1onc2c1CCC2`, the “% Inhibition” value was 18%. The figure for `COc1ccsc1S(=O)(=O)N1CCC(n2ccnc2)CC1` is -3%; for `Cc1ccccc1[C@H]1CCN(c2ccc(NC(=O)c3ccc(Cl)cc3)c(C(=O)O)c2)C1` it is -11%. In the case of `O=C1CC(C(=O)NC[C@H]2C[C@@H]2C2CCC2)CN1` (stereo partly drawn), the “% Inhibition” value is recorded as -5%.

With `c1ccc2c(CCNC3(c4nnnn4CCCN4CCOCC4)CCCC3)c[nH]c2c1`, the “% Inhibition” value is reported as 0%. The figure for `Cc1oc(-c2ccc(C(=O)N3CCN(c4ccccc4)CC3)cc2)nc1CN1CCC(C)CC1` is 38%; for `COc1ccc(-c2cn(-c3ccc(OC)cc3)c(N)c2C#N)cc1` it is -7%. The figure for `Cc1ccc(OCCNc2cc([C@H]3C[C@H](N)C3)nc(C3CC3)n2)cc1C` is 31%; for `Cc1nc2sc(C(=O)Nc3ccc4ccccc4c3)c(N)c2c(C)c1C` it is 2%; for `CNC(=O)NCc1ccccc1S(C)(=O)=O` it is -8%. Take `Cc1ccc(S(=O)(=O)Cc2nc(-c3ccc(C(=O)NCc4ccc(C)o4)cc3)oc2C)cc1`: the “% Inhibition” value is on record as -18%. The figure for `Cc1cccnc1C(F)(F)C(=O)Nc1cc(C)c(O)c(C)c1` is 4%; for `Cc1ccccc1S(=O)(=O)N1CCN(c2c(C)n(-c3ccccc3)c(=O)n(CC(C)C)c2=O)CC1` it is 7%. For `COc1cc(C(=O)Nc2[nH]c(=O)ncc2F)ccc1Cl` the value was 81%; for `Cc1ccc(CCC(=O)N2CC[C@H](C)S(=O)(=O)CC2)s1`, 0%. For `O=C(Nc1ccccc1)OCc1ccc(-c2ccc(Cl)cc2)o1` the value was 4%; for `CC[C@@H](CO)NCc1cccc(OC)c1OCC(=O)NC(C)(C)C`, -8%. On to `OCCNCc1c(Cl)cccc1Cl`, for which the “% Inhibition” value is given as -1%. For `C[C@H](NC(=O)C1CC1c1ccccc1)[C@H](O)c1ccc2c(c1)OCO2` (stereo partly drawn) the value was 5%. With `N#Cc1c(-c2ccco2)ccn(Cc2ccc(F)cc2)c1=O`, the “% Inhibition” value is on record as -5%. For `C[C@H]1CN(c2ccc(N(C)C)cc2)C(=O)NC1=O` the value was 3%; for `Cc1ccc(NC(=O)COC(=O)c2nccc3ccccc23)cc1`, -3%. As for `CC[N+](CC)(CC(=O)OC1CC2CCC1(C)C2(C)C)CC(=O)OC1CC2CCC1(C)C2(C)C` (stereo not drawn), the “% Inhibition” value is listed as 83%. The figure for `Cc1ccc(NC(=O)Cn2cnc3nc(N(C)Cc4ccccc4)sc3c2=O)c(Br)c1` is -14%; for `C[n+]1ccccc1/C=C/c1c[nH]c2ccccc12` it is 90%. With `CC(NC(C)C1CN(C(=O)OC(C)(C)C)C1)c1ccccc1Br` (stereo not drawn), the “% Inhibition” value turned out to be 0%. For `CCc1c(C)nn2c(c1C)c(-c1ccccc1)[n+]1c(C)c(CC)c(C)nc21` the value was 49%.

Values taken from ChEMBL document CHEMBL4888484, “Replenishing the malaria drug discovery pipeline: Screening and hit evaluation of the MMV Hit Generation Library 1 (HGL1) against asexual blood stage Plasmodium falciparum ,using a nano luciferase reporter read-out” (2022).
